B1: 40C3_22B6: human anti-IL1RAP antibody, VH SEQ ID NO: 158, VL SEQ ID NO: 160 (antibody, V domains shown)
VH: EVQLVESGGGLVQPGGSLRLSCAASGFTLSFYWMTWVRQAPGKGLEWVANIKQDGNEKNFVDSVKGRFTISRDNAKKSVFLQMNSLRAEDTAVYYCAREGYFGSGYFDYWGQGTLVTVSS
VL: [about 100 residues cut from this listing]HTFGQGTKLEIK
B2: 17E9_15B1: human anti-IL1RAP antibody, VH SEQ ID NO: 100, VL SEQ ID NO: 103 (antibody, V domains shown)
VH: [about 120 residues cut from this listing]
VL: DIQMTQSPSSLSASVGDRVTLTCRASQNIRSYLNWYQQKPGKAPKLLIFAASSLPSGVPSRFSGSGSVTDFTLTVSSLQPEDFATYSCQQSYSTPYTFGQGTKLEIK

Key:
Karpas 299 = assay: Flow cytometry binding to endogenous cell line Karpas 299; type: cell-based, human; set-up: key: (−): No binding; (+): Weak binding; (++): Moderate binding; (+++): Strong binding; settings: primary antibody 1 ug/ml
Description: (§1) Staining for flow cytometry was performed in 1× cold PBS with 0.5% BSA. Primary antibodies (1 ug/ml) were incubated with live cells on ice for 30 minutes, after a brief wash, cells were incubated with Alexa Fluro® 488-conjugated anti-human IgG secondary antibody @1:1000 (709-546-149, Jackson ImmunoResearch). Acquisition of the data was performed on a MACSQuant® Flow Cytometers (Miltenyi Biotec) and analyzed with FlowJo software.
(§2) Over 1,000 hits were identified that bind strongly to CHO-human IL1RAP, but not parental CHO cells. 68 clones were selected for molecular cloning. Based on unique CDR3 sequences from the heavy chain variable domain, 35 antibodies from 13 families were confirmed by binding in IL1RAP positive cell lines EOL1 and Karpas 299 (see Table 8) by flow cytometry (MACSQuant® www.miltenybiotec.com).

EOL-1 = assay: Flow cytometry binding to endogenous cell line EOL-1; type: cell-based, human; set-up: key: (−): No binding; (+): Weak binding; (++): Moderate binding; (+++): Strong binding; settings: primary antibody 1 ug/ml
Description: as §1, §2

Row | Molecule | binding to Karpas 299 by flow cytometry (Karpas 299) | binding to EOL-1 by flow cytometry (EOL-1)
1 | B1 | (+++) | 
2 | B2 | (+++) | (+++)
